# The supplement of paper PMC8728848
# The other results are listed elsewhere or left out.
# Key:
# Experiment in all cases: glycan array binding signal (z-score within array); higher = stronger binding
# Settings in all cases: glycan notation: IUPAC condensed, linker removed
# [1] = target: GlcNAc(a1-4)Gal(b1-4)GalNAc
# In short: (§1)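 The Consortium for Functional Glycomics database supplied 3228 glycan arrays, of which those lacking an available protein sequence were dropped. The binding signal, a within-array Z-score, was averaged across arrays of the same protein sequence and across linkers. Negative scores can be read as non-binding.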
# [2] = target: GlcNAc(a1-4)Gal(b1-4)GlcNAc
# In short: as §1
# [3] = target: GlcNAc(a1-4)Gal(b1-4)GlcNAc(b1-3)Gal(b1-4)Glc
# In short: as §1
# [4] = target: GlcNAc(a1-4)Gal(b1-4)GlcNAc(b1-3)Gal(b1-4)GlcNAc
# In short: as §1
# [5] = target: GlcNAc(a1-4)Gal(b1-4)GlcNAc(b1-3)Gal(b1-4)GlcNAc(b1-3)Gal(b1-4)GlcNAc
# In short: as §1
# [6] = target: GlcNAc(a1-4)Gal(b1-4)GlcNAc(b1-3)Gal(b1-4)[Fuc(a1-3)]GlcNAc(b1-3)Gal(b1-4)[Fuc(a1-3)]GlcNAc
# In short: as §1
# [7] = target: GlcNAc(a1-6)Gal(b1-4)GlcNAc
# In short: as §1
# [8] = target: GlcNAc(b1-2)Gal(b1-3)GalNAc
# In short: as §1
# [9] = target: GlcNAc(b1-2)Man(a1-3)[GlcNAc(b1-2)Man(a1-6)]Man(b1-4)GlcNAc(b1-4)GlcNAc
# In short: as §1
# [10] = target: GlcNAc(b1-2)Man(a1-3)[GlcNAc(b1-2)Man(a1-6)]Man(b1-4)GlcNAc(b1-4)[Fuc(a1-6)]GlcNAc
# In short: as §1
# [11] = target: GlcNAc(b1-2)[GlcNAc(b1-4)]Man(a1-3)[GlcNAc(b1-2)Man(a1-6)]Man(b1-4)GlcNAc(b1-4)GlcNAc
# In short: as §1
# GlcNAc(b1-3)Gal = target: GlcNAc(b1-3)Gal
# In short: as §1
# [12] = target: GlcNAc(b1-3)Gal(b1-3)GalNAc
# In short: as §1
# GlcNAc(b1-3)Gal(b1-4)Glc = target: GlcNAc(b1-3)Gal(b1-4)Glc
# In short: as §1
# [13] = target: GlcNAc(b1-3)Gal(b1-4)GlcNAc
# In short: as §1
# [14] = target: GlcNAc(b1-3)Gal(b1-4)GlcNAc(b1-3)Gal(b1-4)GlcNAc
# In short: as §1
# GlcNAc(b1-3)GalNAc = target: GlcNAc(b1-3)GalNAc
# In short: as §1
# GlcNAc(b1-3)Man = target: GlcNAc(b1-3)Man
# In short: as §1
# [15] = target: GlcNAc(b1-3)[GlcNAc(b1-4)][GlcNAc(b1-6)]GlcNAc
# In short: as §1
# [16] = target: GlcNAc(b1-3)[GlcNAc(b1-6)]Gal(b1-4)GlcNAc
# In short: as §1
# [17] = target: GlcNAc(b1-3)[GlcNAc(b1-6)]GalNAc
# In short: as §1
# [18] = target: GlcNAc(b1-4)Gal(b1-4)GlcNAc
# In short: as §1
# GlcNAc(b1-4)GlcNAc = target: GlcNAc(b1-4)GlcNAc
# In short: as §1
# [19] = target: GlcNAc(b1-4)GlcNAc(b1-4)GlcNAc
# In short: as §1
# [20] = target: GlcNAc(b1-4)GlcNAc(b1-4)GlcNAc(b1-4)GlcNAc(b1-4)GlcNAc
# In short: as §1
# [21] = target: GlcNAc(b1-4)GlcNAc(b1-4)GlcNAc(b1-4)GlcNAc(b1-4)GlcNAc(b1-4)GlcNAc
# In short: as §1
# [22] = target: GlcNAc(b1-4)[GlcNAc(b1-6)]GalNAc
# In short: as §1
# [23] = target: GlcNAc(b1-6)Gal(b1-4)GlcNAc
# In short: as §1
# GlcNAc(b1-6)GalNAc = target: GlcNAc(b1-6)GalNAc
# In short: as §1
# GlcNAc3Prop(b1-4)GlcNAc = target: GlcNAc3Prop(b1-4)GlcNAc
# In short: as §1
# [24] = target: GlcNAc6S(b1-3)Gal(b1-4)GlcNAc
# In short: as §1
# Kdn(a2-3)Gal(b1-3)GalNAc = target: Kdn(a2-3)Gal(b1-3)GalNAc
# In short: as §1
# Kdn(a2-3)Gal(b1-3)GlcNAc = target: Kdn(a2-3)Gal(b1-3)GlcNAc
# In short: as §1
# Kdn(a2-3)Gal(b1-4)Glc = target: Kdn(a2-3)Gal(b1-4)Glc
# In short: as §1
# Kdn(a2-3)Gal(b1-4)GlcNAc = target: Kdn(a2-3)Gal(b1-4)GlcNAc
# In short: as §1
binder,measurement,setting,value
"Ecp6 (Cladosporium fulvum), B3VBK9 (protein) MQSMILFAAALMGAAVNGFVLPRTDDPDCETKATDCGSTSNIKYTVVKGDTLTSIAKKFKSGICNIVSVNKLANPNLIELGATLIIPENCSNPDNKSCVSTPAEPTETCVPGLPGSYTIVSGDTLTNISQDFNITLDSLIAANTQIENPDAIDVGQIITVPVCPSSQCEAVGTYNIVAGDLFVDLAATYHTTIGQIKALNNNVNPSKLKVGQQIILPQDCKNVTTAVA",glycan array binding signal (z-score),[1],-0.097
same,glycan array binding signal (z-score),[2],-0.078
same,glycan array binding signal (z-score),[3],-0.105
same,glycan array binding signal (z-score),[4],-0.091
same,glycan array binding signal (z-score),[5],-0.107
same,glycan array binding signal (z-score),[6],-0.002
same,glycan array binding signal (z-score),[7],-0.102
same,glycan array binding signal (z-score),[8],-0.081
same,glycan array binding signal (z-score),[9],-0.08
same,glycan array binding signal (z-score),[10],-0.082
same,glycan array binding signal (z-score),[11],-0.083
same,glycan array binding signal (z-score),GlcNAc(b1-3)Gal,-0.075
same,glycan array binding signal (z-score),[12],-0.066
same,glycan array binding signal (z-score),GlcNAc(b1-3)Gal(b1-4)Glc,-0.094
same,glycan array binding signal (z-score),[13],-0.1
same,glycan array binding signal (z-score),[14],-0.075
same,glycan array binding signal (z-score),GlcNAc(b1-3)GalNAc,-0.094
same,glycan array binding signal (z-score),GlcNAc(b1-3)Man,-0.095
same,glycan array binding signal (z-score),[15],-0.073
same,glycan array binding signal (z-score),[16],-0.09
same,glycan array binding signal (z-score),[17],-0.106
same,glycan array binding signal (z-score),[18],-0.079
same,glycan array binding signal (z-score),GlcNAc(b1-4)GlcNAc,-0.085
same,glycan array binding signal (z-score),[19],10.3
same,glycan array binding signal (z-score),[20],13
same,glycan array binding signal (z-score),[21],10.7
same,glycan array binding signal (z-score),[22],-0.103
same,glycan array binding signal (z-score),[23],-0.109
same,glycan array binding signal (z-score),GlcNAc(b1-6)GalNAc,-0.079
same,glycan array binding signal (z-score),GlcNAc3Prop(b1-4)GlcNAc,-0.108
same,glycan array binding signal (z-score),[24],-0.097
same,glycan array binding signal (z-score),Kdn(a2-3)Gal(b1-3)GalNAc,-0.069
same,glycan array binding signal (z-score),Kdn(a2-3)Gal(b1-3)GlcNAc,-0.096
same,glycan array binding signal (z-score),Kdn(a2-3)Gal(b1-4)Glc,-0.076
same,glycan array binding signal (z-score),Kdn(a2-3)Gal(b1-4)GlcNAc,-0.07
